Measured values: the supplement of paper PMC4967469

What was measured:
Test in all cases: Viability of human cancer cell lines after 72 h of drug (GDSC screen)
[1] = compound: NC(=O)C1CCCc2c1[nH]c1ccc(Cl)cc21 [EX-527]; conditions: top dose 20 µM
Description: (§1)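 Human cancer cell lines in 384-well plates, medium with 10% serum, drug for 72 h over a 256-fold dose range (nine 2-fold or five 4-fold steps up to the top dose). Adherent lines were fixed and stained with the nucleic acid dye Syto60, suspension lines read with resazurin; signal relative to control wells, capped at 0 and 100%. One two-parameter sigmoid per drug and line, fitted in a mixed model over all curves with the slope shared within a line.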

[2] = compound: Cn1cnc2c(F)c(Nc3ccc(Br)cc3Cl)c(C(=O)NOCCO)cc21 [AZD6244]; conditions: top dose 4 µM; screen: GDSC drug entry 1498; top dose inferred
Description: as §1

[3] = compound: Nc1ccc(C(=O)Nc2cccc(-c3nc(N4CCOCC4)c4oc5ncccc5c4n3)c2)cn1 [YM201636]; conditions: top dose 5.12 µM; top dose inferred
Description: as §1

[4] = compound: Cc1ccc(NC(=O)c2cccc(C(C)(C)C#N)c2)cc1Nc1ccc2ncn(C)c(=O)c2c1 [AZ628]; conditions: top dose 4 µM; top dose inferred
Description: as §1

[5] = compound: N#CC(c1ccnc(NCCc2cccnc2)n1)c1nc2ccccc2s1 [AS601245]; conditions: top dose 8 µM; top dose inferred
Description: as §1

Row | Cell Line | AUC [1] | pIC50 [1] | AUC [2] | pIC50 [2] | AUC [3] | pIC50 [3] | AUC [4] | pIC50 [4] | AUC [5] | pIC50 [5]
1 | EVSA-T (breast, adherent) | 0.987 | < 4.70 | 0.988 | < 5.40 | 0.867 | 5.45 | 0.991 | < 5.40 | 0.952 | < 5.10
2 | EW-1 (Ewing sarcoma, semi-adherent) | 0.989 | < 4.70 | 0.98 | < 5.40 | 0.688 | 5.99 | 0.985 | < 5.40 | 0.858 | 5.24
3 | EW-3 (Ewing sarcoma, adherent) | 0.978 | < 4.70 | 0.98 | < 5.40 | 0.688 | 5.93 | 0.873 | < 5.40 | 0.958 | < 5.10
4 | EW-11 (Ewing sarcoma, adherent) | 0.964 | < 4.70 | 0.956 | < 5.40 | 0.801 | 5.47 | 0.848 | < 5.40 | 0.95 | < 5.10
5 | EW-13 (Ewing sarcoma, suspension) | 0.975 | < 4.70 | 0.984 | < 5.40 | 0.737 | 5.78 | 0.962 | < 5.40 | 0.881 | < 5.10
6 | EW-16 (Ewing sarcoma, adherent) | 0.983 | < 4.70 | 0.959 | < 5.40 | 0.812 | 5.54 | 0.982 | < 5.40 | 0.845 | 5.21
7 | EW-18 (Ewing sarcoma, suspension) | 0.985 | < 4.70 | 0.98 | < 5.40 | 0.74 | 5.78 | 0.894 | < 5.40 | 0.847 | 5.19
8 | EW-24 (Ewing sarcoma, semi-adherent) | 0.993 | < 4.70 | 0.992 | < 5.40 | 0.965 | < 5.29 | 0.877 | 5.50 | 0.902 | < 5.10
9 | EoL-1-cell (haematopoietic neoplasm, suspension) | 0.886 | 4.75 | 0.752 | 5.92 | 0.824 | 5.59 | 0.906 | < 5.40 | 0.74 | 5.66
10 | Farage (B-cell lymphoma, suspension) | 0.993 | < 4.70 | 0.992 | < 5.40 | 0.399 | 6.75 | 0.955 | < 5.40 | 0.844 | 5.37
11 | GB-1 (glioma, adherent) | 0.792 | 4.96 | 0.953 | < 5.40 | 0.886 | < 5.29 | 0.858 | < 5.40 | 0.898 | < 5.10
12 | GDM-1 (acute myeloid leukaemia, suspension) | 0.976 | < 4.70 | 0.927 | < 5.40 | 0.683 | 6.00 | 0.293 | 7.17 | 0.843 | 5.28
13 | GI-1 (glioma, adherent) | 0.976 | < 4.70 | 0.911 | < 5.40 | 0.902 | < 5.29 | 0.891 | < 5.40 | 0.765 | 5.55
14 | GI-ME-N (neuroblastoma, adherent) | 0.974 | < 4.70 | 0.644 | 6.14 | 0.822 | 5.34 | 0.601 | 6.28 | 0.927 | < 5.10
15 | GOTO (neuroblastoma, adherent) | 0.982 | < 4.70 | 0.974 | < 5.40 | 0.833 | 5.40 | 0.869 | < 5.40 | 0.928 | < 5.10
16 | GR-ST (lymphoblastic leukaemia, suspension) | 0.972 | < 4.70 | 0.977 | < 5.40 | 0.714 | 5.83 | 0.878 | < 5.40 | 0.839 | 5.14
17 | GRANTA-519 (B-cell lymphoma, suspension) | 0.988 | < 4.70 | 0.99 | < 5.40 | 0.953 | < 5.29 | 0.982 | < 5.40 | 0.98 | < 5.10
18 | GT3TKB (stomach, adherent) | 0.985 | < 4.70 | 0.757 | 5.91 | 0.984 | < 5.29 | 0.974 | < 5.40 | 0.828 | 5.38
19 | H9 (lymphoid neoplasm, suspension) | 0.991 | < 4.70 | 0.671 | 6.17 | 0.876 | 5.44 | 0.765 | 5.91 | 0.932 | < 5.10
20 | H-EMC-SS (chondrosarcoma, adherent) | 0.974 | < 4.70 | 0.542 | 6.47 | 0.848 | < 5.29 | 0.783 | 5.65 | 0.865 | < 5.10
21 | HA7-RCC (kidney, adherent) | 0.983 | < 4.70 | 0.878 | < 5.40 | 0.774 | 5.65 | 0.985 | < 5.40 | 0.874 | < 5.10
22 | HAL-01 (lymphoblastic leukaemia, suspension) | 0.989 | < 4.70 | 0.908 | < 5.40 | 0.842 | 5.52 | 0.851 | 5.60 | 0.869 | 5.22
23 | HC-1 (hairy cell leukaemia, suspension) | 0.984 | < 4.70 | 0.903 | < 5.40 | 0.823 | 5.54 | 0.95 | < 5.40 | 0.858 | 5.21
24 | HCC1187 (breast, suspension) | 0.985 | < 4.70 | 0.972 | < 5.40 | 0.919 | < 5.29 | 0.896 | < 5.40 | 0.722 | 5.69
25 | HCC1500 (breast, adherent) | 0.986 | < 4.70 | 0.973 | < 5.40 | 0.976 | < 5.29 | 0.937 | < 5.40 | 0.889 | < 5.10

pIC50: −log10 of the molar value. A lower IC50 marks a more sensitive line; a limit (>, <) means that the fit lies beyond the doses tested. AUC sums up the same curve from the lowest dose to the 256-fold higher top dose; it is 1 without any effect and falls as sensitivity rises. For some of these results: An inferred top dose was derived from the fitted curves, not read from the paper. For some of these results: Where an entry number is given, a second screen of the drug exists; the two often differ.
